From US20240076343A1 (CEPHALON, published 2024)

T1: intermediate affinity hIL-2 receptor complex (IL-2Rβγ) on TF1+IL-2Rβ cells (human, UniProt P14784 27-551; P31785 23-369)
T1 sequence 1: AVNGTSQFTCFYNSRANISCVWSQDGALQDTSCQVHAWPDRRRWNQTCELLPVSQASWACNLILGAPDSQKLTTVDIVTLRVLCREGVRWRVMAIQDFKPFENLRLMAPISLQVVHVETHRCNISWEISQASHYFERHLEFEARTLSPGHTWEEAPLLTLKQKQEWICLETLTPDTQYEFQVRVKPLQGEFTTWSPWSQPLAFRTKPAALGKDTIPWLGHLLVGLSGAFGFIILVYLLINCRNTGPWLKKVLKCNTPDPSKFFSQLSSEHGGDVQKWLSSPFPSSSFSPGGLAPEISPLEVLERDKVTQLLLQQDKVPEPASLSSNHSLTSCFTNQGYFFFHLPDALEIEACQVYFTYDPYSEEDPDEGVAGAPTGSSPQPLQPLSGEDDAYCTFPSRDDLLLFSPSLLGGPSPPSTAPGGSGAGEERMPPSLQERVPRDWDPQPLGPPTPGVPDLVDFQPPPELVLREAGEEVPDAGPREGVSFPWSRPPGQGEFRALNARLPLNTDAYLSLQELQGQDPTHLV
T1 sequence 2: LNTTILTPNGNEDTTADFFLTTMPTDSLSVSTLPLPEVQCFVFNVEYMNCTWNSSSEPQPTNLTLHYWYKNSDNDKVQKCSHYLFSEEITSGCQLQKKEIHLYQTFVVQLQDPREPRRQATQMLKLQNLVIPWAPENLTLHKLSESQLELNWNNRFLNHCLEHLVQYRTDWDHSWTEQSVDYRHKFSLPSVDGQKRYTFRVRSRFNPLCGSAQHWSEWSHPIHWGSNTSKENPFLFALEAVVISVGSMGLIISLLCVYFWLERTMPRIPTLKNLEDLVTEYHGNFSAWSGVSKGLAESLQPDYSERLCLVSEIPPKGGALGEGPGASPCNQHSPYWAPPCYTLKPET

T2: high-affinity hIL-2 receptor (IL-2Rαβγ) on NK-92 cells (human, UniProt P01589 22-272; P14784 27-551; P31785 23-369)
T2 sequence 1: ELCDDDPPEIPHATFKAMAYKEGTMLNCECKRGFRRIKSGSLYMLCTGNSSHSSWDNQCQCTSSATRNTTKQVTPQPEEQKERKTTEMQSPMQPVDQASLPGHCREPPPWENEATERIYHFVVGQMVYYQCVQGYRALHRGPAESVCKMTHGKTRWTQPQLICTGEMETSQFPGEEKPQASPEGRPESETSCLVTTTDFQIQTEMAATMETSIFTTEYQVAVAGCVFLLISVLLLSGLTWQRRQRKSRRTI
T2 sequence 2: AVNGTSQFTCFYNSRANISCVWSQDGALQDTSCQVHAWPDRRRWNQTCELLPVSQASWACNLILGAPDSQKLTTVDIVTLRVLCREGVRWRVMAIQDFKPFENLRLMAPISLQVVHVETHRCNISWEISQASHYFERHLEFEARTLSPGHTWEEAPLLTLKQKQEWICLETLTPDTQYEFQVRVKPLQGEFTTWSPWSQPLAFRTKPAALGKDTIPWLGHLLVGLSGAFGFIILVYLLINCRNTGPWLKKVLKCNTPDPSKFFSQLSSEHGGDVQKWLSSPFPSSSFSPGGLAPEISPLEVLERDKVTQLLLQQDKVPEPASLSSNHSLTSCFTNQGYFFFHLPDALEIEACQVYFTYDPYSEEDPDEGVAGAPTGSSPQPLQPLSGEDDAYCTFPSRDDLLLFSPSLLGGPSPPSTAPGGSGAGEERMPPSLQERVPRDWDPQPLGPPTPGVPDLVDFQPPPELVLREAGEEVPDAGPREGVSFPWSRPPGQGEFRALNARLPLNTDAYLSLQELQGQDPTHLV
T2 sequence 3: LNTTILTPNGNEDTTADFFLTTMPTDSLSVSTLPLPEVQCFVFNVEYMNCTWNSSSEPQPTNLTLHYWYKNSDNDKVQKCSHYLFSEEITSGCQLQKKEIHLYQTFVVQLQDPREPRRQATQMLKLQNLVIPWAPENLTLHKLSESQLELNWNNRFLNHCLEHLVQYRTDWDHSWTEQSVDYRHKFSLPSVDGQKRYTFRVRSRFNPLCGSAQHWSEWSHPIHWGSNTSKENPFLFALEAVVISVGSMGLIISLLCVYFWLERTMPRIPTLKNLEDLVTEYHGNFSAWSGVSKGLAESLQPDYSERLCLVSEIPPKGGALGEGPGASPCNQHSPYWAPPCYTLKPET

T3: intermediate affinity hIL-2 receptor (hIL-2Rβγ) on TF1+IL-2Rβ cells (human, UniProt P14784 27-551; P31785 23-369)
T3 sequence 1: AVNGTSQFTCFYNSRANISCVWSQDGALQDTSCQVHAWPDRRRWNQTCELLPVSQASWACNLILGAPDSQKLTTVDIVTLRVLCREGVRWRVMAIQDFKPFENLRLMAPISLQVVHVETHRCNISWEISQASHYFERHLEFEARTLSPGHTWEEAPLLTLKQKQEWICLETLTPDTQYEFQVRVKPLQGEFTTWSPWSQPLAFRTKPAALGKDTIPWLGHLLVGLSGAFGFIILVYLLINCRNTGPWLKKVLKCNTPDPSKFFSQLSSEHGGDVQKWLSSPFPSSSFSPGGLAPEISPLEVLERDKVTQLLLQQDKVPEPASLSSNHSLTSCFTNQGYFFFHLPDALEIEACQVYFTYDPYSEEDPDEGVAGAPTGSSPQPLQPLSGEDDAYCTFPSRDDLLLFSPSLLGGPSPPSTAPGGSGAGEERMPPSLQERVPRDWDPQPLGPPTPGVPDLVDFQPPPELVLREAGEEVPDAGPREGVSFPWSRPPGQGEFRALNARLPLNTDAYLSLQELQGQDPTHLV
T3 sequence 2: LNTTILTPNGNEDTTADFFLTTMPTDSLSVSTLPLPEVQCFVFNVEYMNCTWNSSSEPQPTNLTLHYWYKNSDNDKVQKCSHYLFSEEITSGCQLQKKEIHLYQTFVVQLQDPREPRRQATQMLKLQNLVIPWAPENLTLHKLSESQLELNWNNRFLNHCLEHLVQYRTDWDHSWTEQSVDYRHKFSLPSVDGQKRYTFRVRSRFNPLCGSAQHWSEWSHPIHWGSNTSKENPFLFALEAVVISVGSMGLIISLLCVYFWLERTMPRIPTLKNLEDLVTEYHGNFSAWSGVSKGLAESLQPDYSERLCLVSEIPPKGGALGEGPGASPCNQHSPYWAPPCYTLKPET


Experiments:
Assay in all cases: cell-based or functional assay
[1] = biological target: T1, intermediate affinity hIL-2 receptor …
[2] = biological target: T2, high-affinity hIL-2 receptor (IL-2Rαβγ) …
[3] = biological target: T3, intermediate affinity hIL-2 receptor …

Fold change from hIL-2 (TF1 + IL-2Rβ) [1] [fold] | Fold change from hIL-2 (NK-92) [2] [fold] | Fold change from rhIL-2 (TF1 + IL-2Rβ) [3] [fold] | Binder
3 | 18 | – | 1H3-hIgG1-L6-hIL-2 (T3A/D20A/R38E/C125A) (other) heavy: EVQLVESGGGLVQPGRSLKLSCAVSGFTFSDYAMAWVRQAPKKGLEWVATISYDGSRTYYRDSVKGRFTISRDNAKITLYLQMDSLRSEDTATYYCARHGSGYFDYWGQGVMVTVSS[not shown - human IgG1 constant region]SGGGGSAPASSSTKKTQLQLEHLLLALQMILNGINNYKNPKLTEMLTFKFYMPKKATELKHLQCLEEELKPLEEVLNLAQSKNFHLRPRDLISNINVIVLELKGSETTFMCEYADETATIVEFLNRWITFAQSIISTLT light: DTVLTQSPALAVSPGERVTISCRASESVRTGVHWYQQKPGQQPKLLIYGASNLESGVPARFSGSGSGTDFTLTIDPVEADDTATYFCQQSWNDPFTFGSGTKLEIKRTVAAPSVFIFPPSDEQLKSGTASVVCLLNNFYPREAKVQWKVDNALQSGNSQESVTEQDSKDSTYSLSSTLTLSKADYEKHKVYACEVTHQGLSSPVTKSFNRGEC
– | – | > 10000 | 1H3-hIgG1-L6-hIL-2 (D20A/R38E) (other) heavy: EVQLVESGGGLVQPGRSLKLSCAVSGFTFSDYAMAWVRQAPKKGLEWVATISYDGSRTYYRDSVKGRFTISRDNAKITLYLQMDSLRSEDTATYYCARHGSGYFDYWGQGVMVTVSS[not shown - about 450 residues with a human IgG1 Fc and changes] light: DTVLTQSPALAVSPGERVTISCRASESVRTGVHWYQQKPGQQPKLLIYGASNLESGVPARFSGSGSGTDFTLTIDPVEADDTATYFCQQSWNDPFTFGSGTKLEIKRTVAAPSVFIFPPSDEQLKSGTASVVCLLNNFYPREAKVQWKVDNALQSGNSQESVTEQDSKDSTYSLSSTLTLSKADYEKHKVYACEVTHQGLSSPVTKSFNRGEC
